{"source": "ChEMBL document CHEMBL1961873", "about": "“Compounds: GSK PKIS; Assays: Nanosyn kinase panel” (2012)", "note": "The list shows a part of the results, in another mix than the full data."}
{"molecular_target": "Serine/threonine-protein kinase Chk2 (Homo sapiens) (UniProt O96017)", "sequence (O96017 whole entry)": "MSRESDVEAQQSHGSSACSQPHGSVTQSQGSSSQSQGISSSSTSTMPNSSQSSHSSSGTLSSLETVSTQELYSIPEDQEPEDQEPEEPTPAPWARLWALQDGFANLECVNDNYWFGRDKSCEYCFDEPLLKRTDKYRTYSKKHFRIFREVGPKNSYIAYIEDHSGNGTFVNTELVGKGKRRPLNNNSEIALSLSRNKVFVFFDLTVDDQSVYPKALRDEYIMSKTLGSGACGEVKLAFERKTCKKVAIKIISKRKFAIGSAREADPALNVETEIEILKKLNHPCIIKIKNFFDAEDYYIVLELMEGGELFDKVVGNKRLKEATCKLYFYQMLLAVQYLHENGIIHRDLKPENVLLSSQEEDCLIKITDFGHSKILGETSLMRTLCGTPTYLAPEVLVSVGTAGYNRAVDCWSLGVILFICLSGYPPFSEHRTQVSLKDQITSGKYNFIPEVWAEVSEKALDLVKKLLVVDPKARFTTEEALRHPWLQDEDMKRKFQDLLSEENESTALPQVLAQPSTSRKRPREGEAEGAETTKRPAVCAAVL", "conditions": "at 1 µM", "units": {"inhibition": "%"}}
{"smiles": "O=C(O)c1ccc(Oc2nccc(-c3c(-c4ccc(F)cc4)ncn3C3CCNCC3)n2)cc1", "inhibition": 7.7}
{"smiles": "CC(C)(C)c1ccc(Oc2nccc(-c3c(-c4ccc(F)cc4)ncn3C3CCNCC3)n2)cc1", "inhibition": 5.41}
{"smiles": "Fc1ccc(Oc2nccc(-c3c(-c4ccc(F)cc4)ncn3C3CCNCC3)n2)cc1", "inhibition": 6.36}
{"smiles": "COc1ccccc1C1=C(Nc2ccccc2)C(=O)NC1=O", "inhibition": -1.64}
{"smiles": "Fc1ccc(-c2ncn(C3CCNCC3)c2-c2ccnc(Oc3ccc(Cl)cc3)n2)cc1", "inhibition": -6.53}
{"smiles": "NC(=O)CCc1ccccc1Oc1nccc(-c2c(-c3ccc(F)cc3)ncn2C2CCNCC2)n1", "inhibition": -2.84}
{"smiles": "COc1ccccc1Oc1nccc(-c2c(-c3ccc(F)cc3)ncn2C2CCNCC2)n1", "inhibition": -3.24}
{"smiles": "CS(=O)(=O)c1ccc(Oc2nccc(-c3c(-c4ccc(F)cc4)ncn3C3CCNCC3)n2)cc1", "inhibition": 3.7}
{"smiles": "Cc1cccc(Oc2nccc(-c3c(-c4ccc(F)cc4)ncn3C3CCNCC3)n2)c1C", "inhibition": 8.27}
{"smiles": "Fc1ccc(-c2ncn(C3CCNCC3)c2-c2ccnc(Oc3cccc(F)c3)n2)cc1", "inhibition": -2.46}
{"smiles": "Fc1ccc(-c2ncn(C3CCNCC3)c2-c2ccnc(Oc3cccc(C(F)(F)F)c3)n2)cc1", "inhibition": 1.85}
{"smiles": "O=C1NC(=O)C(c2ccccc2Cl)=C1Nc1cc(Cl)c(O)c(Cl)c1", "inhibition": 3.75}
{"smiles": "O=C1NC(=O)C(c2ccccc2)=C1Nc1ccccc1", "inhibition": 1.67}
{"smiles": "O=C1NC(=O)C(c2cccc([N+](=O)[O-])c2)=C1Nc1cc(Cl)c(O)c(Cl)c1", "inhibition": 0.98}
{"molecular_target": "Death-associated protein kinase 1 (Homo sapiens) (UniProt P53355)", "sequence (P53355 whole entry, looked up)": "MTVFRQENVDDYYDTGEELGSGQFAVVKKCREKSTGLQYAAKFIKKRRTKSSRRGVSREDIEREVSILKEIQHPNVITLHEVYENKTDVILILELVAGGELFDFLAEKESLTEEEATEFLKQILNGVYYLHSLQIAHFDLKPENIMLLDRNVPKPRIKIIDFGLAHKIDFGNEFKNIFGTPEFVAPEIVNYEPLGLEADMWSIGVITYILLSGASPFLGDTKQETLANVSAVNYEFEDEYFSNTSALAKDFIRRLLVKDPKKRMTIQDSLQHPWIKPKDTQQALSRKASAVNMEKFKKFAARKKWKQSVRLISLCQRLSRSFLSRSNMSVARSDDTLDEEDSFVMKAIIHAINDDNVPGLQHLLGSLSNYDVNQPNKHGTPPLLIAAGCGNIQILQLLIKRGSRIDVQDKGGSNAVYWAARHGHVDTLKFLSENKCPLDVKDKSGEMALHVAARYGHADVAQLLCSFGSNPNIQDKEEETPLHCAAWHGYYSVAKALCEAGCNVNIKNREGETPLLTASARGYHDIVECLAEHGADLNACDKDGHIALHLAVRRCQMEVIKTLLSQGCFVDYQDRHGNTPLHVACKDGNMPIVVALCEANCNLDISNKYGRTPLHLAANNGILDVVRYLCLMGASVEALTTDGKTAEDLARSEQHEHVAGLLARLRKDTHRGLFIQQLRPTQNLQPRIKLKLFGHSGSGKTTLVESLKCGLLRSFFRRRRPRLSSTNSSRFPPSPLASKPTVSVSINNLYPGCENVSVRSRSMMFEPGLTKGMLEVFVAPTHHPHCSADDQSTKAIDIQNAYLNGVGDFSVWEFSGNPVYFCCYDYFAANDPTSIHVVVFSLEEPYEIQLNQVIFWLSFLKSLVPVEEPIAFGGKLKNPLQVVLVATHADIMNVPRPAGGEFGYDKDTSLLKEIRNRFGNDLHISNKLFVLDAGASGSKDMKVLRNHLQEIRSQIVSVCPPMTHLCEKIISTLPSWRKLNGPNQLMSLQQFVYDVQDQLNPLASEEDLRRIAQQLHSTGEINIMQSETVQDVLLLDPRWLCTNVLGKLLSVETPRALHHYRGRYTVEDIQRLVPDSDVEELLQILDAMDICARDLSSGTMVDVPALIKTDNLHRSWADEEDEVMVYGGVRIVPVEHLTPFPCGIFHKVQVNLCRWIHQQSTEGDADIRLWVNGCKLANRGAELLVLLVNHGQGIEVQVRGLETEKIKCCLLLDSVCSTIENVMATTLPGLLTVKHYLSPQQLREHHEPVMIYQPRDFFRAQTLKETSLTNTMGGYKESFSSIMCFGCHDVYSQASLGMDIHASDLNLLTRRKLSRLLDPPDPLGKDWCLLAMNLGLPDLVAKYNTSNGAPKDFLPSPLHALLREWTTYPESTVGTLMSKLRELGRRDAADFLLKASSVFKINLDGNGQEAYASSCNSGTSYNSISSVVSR", "conditions": "at 0.1 µM", "units": {"inhibition": "%"}}
{"smiles": "O=C(O)c1ccc(Oc2nccc(-c3c(-c4ccc(F)cc4)ncn3C3CCNCC3)n2)cc1", "inhibition": 7.6}
{"smiles": "CC(C)(C)c1ccc(Oc2nccc(-c3c(-c4ccc(F)cc4)ncn3C3CCNCC3)n2)cc1", "inhibition": -0.19}
{"smiles": "Fc1ccc(Oc2nccc(-c3c(-c4ccc(F)cc4)ncn3C3CCNCC3)n2)cc1", "inhibition": 3.32}
{"smiles": "COc1ccccc1C1=C(Nc2ccccc2)C(=O)NC1=O", "inhibition": -4.35}
{"smiles": "Fc1ccc(-c2ncn(C3CCNCC3)c2-c2ccnc(Oc3ccc(Cl)cc3)n2)cc1", "inhibition": -8.78}
{"smiles": "NC(=O)CCc1ccccc1Oc1nccc(-c2c(-c3ccc(F)cc3)ncn2C2CCNCC2)n1", "inhibition": 0.92}
{"smiles": "COc1ccccc1Oc1nccc(-c2c(-c3ccc(F)cc3)ncn2C2CCNCC2)n1", "inhibition": -3.82}
{"smiles": "CS(=O)(=O)c1ccc(Oc2nccc(-c3c(-c4ccc(F)cc4)ncn3C3CCNCC3)n2)cc1", "inhibition": 1.95}
{"smiles": "Cc1cccc(Oc2nccc(-c3c(-c4ccc(F)cc4)ncn3C3CCNCC3)n2)c1C", "inhibition": 12.6}
{"smiles": "Fc1ccc(-c2ncn(C3CCNCC3)c2-c2ccnc(Oc3cccc(F)c3)n2)cc1", "inhibition": -3.14}
{"smiles": "Fc1ccc(-c2ncn(C3CCNCC3)c2-c2ccnc(Oc3cccc(C(F)(F)F)c3)n2)cc1", "inhibition": 8.37}
{"smiles": "O=C1NC(=O)C(c2ccccc2Cl)=C1Nc1cc(Cl)c(O)c(Cl)c1", "inhibition": 3.92}
{"smiles": "O=C1NC(=O)C(c2ccccc2)=C1Nc1ccccc1", "inhibition": -2.51}
{"smiles": "O=C1NC(=O)C(c2cccc([N+](=O)[O-])c2)=C1Nc1cc(Cl)c(O)c(Cl)c1", "inhibition": 3.31}
